About 21,000 targets were measured; listed, in parts, are those with the largest changes and a random draw of the rest.
Compound: CC1Cc2ccccc2N1C(=O)C1CCCN(C1)C(=O)CCl (mixture of isomers) [TRIM25 ligand 11 (diastereomer mixture)]
Assay: probe-labelled cysteine peptide fold change vs DMSO (competition) (log2 fold change); higher = less target engagement (more negative = stronger competition)
Settings: 10 µM; THP-1; incubation time: 4 h
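Note: competitive chemoproteomic profiling in live THP-1 cells with an iodoacetamide desthiobiotin (IA-DTB) probe, comparing probe-labelled peptide intensities in compound-treated cells against DMSO-treated controls.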

Sequence of UniProt Q8N0V3 (Q8N0V3 whole entry, looked up): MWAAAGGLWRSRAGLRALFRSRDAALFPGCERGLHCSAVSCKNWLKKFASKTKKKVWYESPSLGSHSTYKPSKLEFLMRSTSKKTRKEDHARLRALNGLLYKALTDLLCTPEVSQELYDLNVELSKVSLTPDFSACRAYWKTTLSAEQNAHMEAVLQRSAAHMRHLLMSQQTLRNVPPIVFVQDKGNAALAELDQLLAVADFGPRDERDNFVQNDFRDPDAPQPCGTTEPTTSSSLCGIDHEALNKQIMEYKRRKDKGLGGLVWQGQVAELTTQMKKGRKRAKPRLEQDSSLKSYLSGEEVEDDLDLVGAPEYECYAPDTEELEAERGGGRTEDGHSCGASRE
Sequence of UniProt P23219 (P23219 whole entry): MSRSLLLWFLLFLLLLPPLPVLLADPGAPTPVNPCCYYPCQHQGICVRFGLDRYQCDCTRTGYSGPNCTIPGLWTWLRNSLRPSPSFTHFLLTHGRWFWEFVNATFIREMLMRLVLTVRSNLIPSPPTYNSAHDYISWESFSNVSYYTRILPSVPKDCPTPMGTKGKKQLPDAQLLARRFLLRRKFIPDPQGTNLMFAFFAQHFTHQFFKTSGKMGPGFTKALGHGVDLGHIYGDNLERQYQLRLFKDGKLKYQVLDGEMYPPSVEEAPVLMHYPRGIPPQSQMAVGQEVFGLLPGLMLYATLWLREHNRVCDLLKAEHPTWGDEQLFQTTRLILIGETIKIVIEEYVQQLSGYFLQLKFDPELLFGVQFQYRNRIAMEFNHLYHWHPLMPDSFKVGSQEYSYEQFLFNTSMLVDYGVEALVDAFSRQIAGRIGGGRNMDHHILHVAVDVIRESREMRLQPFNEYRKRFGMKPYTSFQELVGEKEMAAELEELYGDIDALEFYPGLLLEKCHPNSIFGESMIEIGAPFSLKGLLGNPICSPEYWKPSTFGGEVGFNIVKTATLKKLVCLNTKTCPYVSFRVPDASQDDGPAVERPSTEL
Sequence of UniProt P54136 (P54136 whole entry, looked up): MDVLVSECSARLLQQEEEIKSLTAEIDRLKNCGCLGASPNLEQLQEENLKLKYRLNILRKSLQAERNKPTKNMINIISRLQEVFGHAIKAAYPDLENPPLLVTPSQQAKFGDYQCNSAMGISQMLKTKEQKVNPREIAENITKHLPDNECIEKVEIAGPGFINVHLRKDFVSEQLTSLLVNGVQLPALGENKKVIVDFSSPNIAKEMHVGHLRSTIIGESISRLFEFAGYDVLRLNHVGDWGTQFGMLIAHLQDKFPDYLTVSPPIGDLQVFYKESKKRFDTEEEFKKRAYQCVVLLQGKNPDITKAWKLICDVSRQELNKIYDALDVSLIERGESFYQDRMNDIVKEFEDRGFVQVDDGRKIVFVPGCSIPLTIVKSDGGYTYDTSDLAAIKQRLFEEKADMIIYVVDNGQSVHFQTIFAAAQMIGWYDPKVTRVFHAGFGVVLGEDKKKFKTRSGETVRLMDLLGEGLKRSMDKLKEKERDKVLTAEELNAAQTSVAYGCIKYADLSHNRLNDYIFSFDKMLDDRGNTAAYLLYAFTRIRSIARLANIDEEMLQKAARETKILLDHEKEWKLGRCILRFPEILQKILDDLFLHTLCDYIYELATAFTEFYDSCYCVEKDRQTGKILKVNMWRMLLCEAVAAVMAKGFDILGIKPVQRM
Sequence of UniProt O75116 (O75116 whole entry, looked up): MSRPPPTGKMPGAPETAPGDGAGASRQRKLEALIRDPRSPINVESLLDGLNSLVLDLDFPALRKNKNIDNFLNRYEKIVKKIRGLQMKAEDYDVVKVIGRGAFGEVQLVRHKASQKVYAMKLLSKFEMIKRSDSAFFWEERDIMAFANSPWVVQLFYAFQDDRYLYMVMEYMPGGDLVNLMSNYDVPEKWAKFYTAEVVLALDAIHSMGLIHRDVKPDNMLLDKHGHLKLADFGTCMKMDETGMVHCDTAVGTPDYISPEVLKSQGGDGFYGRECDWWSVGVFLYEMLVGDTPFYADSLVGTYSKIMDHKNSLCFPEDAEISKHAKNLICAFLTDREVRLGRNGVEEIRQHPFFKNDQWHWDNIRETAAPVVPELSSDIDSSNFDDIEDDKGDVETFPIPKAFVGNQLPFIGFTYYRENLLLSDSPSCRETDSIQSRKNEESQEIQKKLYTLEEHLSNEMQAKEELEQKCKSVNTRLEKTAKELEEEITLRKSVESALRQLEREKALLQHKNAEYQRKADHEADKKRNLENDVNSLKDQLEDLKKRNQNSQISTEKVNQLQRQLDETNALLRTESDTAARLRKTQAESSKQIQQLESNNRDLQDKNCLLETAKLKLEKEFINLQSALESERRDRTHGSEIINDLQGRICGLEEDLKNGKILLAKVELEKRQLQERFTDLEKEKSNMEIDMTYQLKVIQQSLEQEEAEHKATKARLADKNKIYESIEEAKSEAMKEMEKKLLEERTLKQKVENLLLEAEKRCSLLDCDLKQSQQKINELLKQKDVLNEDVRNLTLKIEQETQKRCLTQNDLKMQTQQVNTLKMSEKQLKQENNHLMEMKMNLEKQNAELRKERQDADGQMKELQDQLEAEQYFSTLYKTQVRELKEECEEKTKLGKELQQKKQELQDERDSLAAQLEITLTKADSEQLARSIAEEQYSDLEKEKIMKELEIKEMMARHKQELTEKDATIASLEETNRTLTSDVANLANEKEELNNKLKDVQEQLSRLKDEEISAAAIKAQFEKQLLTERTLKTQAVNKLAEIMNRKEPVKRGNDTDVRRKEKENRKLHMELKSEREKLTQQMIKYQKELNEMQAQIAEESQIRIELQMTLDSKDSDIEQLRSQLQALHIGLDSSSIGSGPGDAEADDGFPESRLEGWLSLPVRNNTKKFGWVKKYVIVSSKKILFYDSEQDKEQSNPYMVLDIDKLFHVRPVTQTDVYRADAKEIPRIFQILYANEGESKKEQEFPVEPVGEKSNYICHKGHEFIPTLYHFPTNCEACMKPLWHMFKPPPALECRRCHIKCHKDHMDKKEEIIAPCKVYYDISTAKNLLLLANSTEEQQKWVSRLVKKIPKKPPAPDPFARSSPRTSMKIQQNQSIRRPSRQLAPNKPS
Sequence of UniProt O14818 (O14818 whole entry, looked up): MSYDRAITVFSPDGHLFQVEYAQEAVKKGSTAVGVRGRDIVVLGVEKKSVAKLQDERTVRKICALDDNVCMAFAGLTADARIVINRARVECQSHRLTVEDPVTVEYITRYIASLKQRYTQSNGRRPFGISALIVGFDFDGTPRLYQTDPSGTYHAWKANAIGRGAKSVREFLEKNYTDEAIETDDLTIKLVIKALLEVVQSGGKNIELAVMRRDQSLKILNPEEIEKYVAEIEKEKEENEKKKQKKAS
Sequence of UniProt Q96BW5 (Q96BW5 whole entry, looked up): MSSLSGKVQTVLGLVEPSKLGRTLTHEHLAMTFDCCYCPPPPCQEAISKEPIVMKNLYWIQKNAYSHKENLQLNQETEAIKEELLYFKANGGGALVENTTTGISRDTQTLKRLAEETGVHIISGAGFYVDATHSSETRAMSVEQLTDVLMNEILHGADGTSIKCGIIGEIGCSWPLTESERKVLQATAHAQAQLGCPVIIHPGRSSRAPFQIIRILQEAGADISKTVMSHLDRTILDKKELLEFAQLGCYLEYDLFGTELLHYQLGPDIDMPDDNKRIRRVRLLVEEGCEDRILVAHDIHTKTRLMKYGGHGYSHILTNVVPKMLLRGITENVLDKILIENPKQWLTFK
Sequence of UniProt P06737 (P06737 whole entry, looked up): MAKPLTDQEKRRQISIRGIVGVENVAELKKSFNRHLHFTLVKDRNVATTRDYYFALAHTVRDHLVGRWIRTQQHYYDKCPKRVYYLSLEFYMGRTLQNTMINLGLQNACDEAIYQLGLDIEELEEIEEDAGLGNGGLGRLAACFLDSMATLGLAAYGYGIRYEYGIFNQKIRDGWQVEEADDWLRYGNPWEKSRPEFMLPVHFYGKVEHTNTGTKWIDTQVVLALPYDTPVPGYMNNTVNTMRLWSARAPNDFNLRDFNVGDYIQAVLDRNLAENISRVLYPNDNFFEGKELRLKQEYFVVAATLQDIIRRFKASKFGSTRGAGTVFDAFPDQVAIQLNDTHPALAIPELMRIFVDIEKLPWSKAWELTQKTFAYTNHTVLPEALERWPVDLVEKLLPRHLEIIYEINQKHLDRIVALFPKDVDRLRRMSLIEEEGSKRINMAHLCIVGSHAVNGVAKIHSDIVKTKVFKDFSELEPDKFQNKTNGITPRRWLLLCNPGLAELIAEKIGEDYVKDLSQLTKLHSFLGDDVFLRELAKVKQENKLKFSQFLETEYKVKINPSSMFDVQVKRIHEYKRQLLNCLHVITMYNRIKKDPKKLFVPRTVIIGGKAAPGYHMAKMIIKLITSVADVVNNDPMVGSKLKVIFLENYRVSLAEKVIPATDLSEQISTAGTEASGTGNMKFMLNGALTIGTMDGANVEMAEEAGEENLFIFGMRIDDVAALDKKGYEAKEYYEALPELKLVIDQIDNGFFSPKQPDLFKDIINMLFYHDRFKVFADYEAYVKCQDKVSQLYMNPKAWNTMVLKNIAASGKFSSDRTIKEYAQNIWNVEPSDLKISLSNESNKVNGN
Sequence of UniProt O95758 (O95758 whole entry, looked up): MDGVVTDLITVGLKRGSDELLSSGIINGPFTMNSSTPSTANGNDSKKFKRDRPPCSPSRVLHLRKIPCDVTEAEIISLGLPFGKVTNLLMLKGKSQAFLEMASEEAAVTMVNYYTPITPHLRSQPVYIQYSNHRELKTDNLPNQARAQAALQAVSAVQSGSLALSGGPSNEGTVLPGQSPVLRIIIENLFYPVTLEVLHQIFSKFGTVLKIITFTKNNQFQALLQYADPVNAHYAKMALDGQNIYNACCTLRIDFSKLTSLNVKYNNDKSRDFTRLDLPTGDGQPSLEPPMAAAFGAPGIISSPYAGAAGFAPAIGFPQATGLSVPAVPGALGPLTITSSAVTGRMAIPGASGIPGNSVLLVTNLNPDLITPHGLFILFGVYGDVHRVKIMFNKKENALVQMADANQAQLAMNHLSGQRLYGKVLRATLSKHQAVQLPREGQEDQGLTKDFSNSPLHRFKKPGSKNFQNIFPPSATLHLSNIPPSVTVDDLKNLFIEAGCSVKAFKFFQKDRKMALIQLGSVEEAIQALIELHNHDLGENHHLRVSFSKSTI

Row | Target | probe-labelled cysteine peptide fold change
1 | QARS_P47897_111_SHPLDPIDTVDFERECGVGVIVTPEQIEEAVEAAINR (UniProt P47897) | 0.149
2 | RFTN1_Q14699_211_GDHASLENEKPGTGDVCSAPAGR (UniProt Q14699) | 0.201
3 | RABEP1_Q15276_718_EQIQAEQCLK (UniProt Q15276) | -0.00537
4 | PYCR2_Q96C36_232_DNVCSPGGATIHALHFLESGGFR (UniProt Q96C36) | 0.0855
5 | RAB4A_P20338_28_SCLLHQFIEK (UniProt P20338) | 0.131
6 | PSMA7_O14818_70_ICALDDNVCMAFAGLTADAR (UniProt O14818) | 0.0906
7 | RBM17_Q96I25_339_CVIFEIPGAPDDEAVR (UniProt Q96I25) | -0.0382
8 | RNF213_Q63HN8_2503_EVLCDHMVDGQPLAEDSGLHIIAACNPYRK (UniProt Q63HN8) | 0.0484
9 | RFC3_P40938_32_NLVQCGDFPHLLVYGPSGAGKK (UniProt P40938) | 0.0273
10 | RBBP5_Q15291_43_WGTLLAVGCNDGR (UniProt Q15291) | -0.0445
11 | RAB3GAP2_Q9H2M9_636_SQELESVDEGLLQFCANK (UniProt Q9H2M9) | 0.177
12 | RAB33A_Q14088_57_FCGGTFPDK (UniProt Q14088) | 0.204
13 | PSMD14_O00487_238_SWMEGLTLQDYSEHCK (UniProt O00487) | 0.0819
14 | RBFA_Q8N0V3_338_TEDGHSCGASR (UniProt Q8N0V3) | 0.364
15 | RCHY1_Q96PM5_43_LCHDNNEDHQLDR (UniProt Q96PM5) | 0.326
16 | RNF213_Q63HN8_1677_EGGDVTELLAALCR (UniProt Q63HN8) | 0.505
17 | PTDSS1_P48651_347_QYYAYLTDTQCK (UniProt P48651) | 0.288
18 | PXK_Q7Z7A4_196_DFQCLIK (UniProt Q7Z7A4) | 0.378
19 | RANBP2_P49792_2710_ECIIVWEK (UniProt P49792) | -0.0786
20 | RBPJ_Q06330_252_LVCSVTGMALPR (UniProt Q06330) | 0.0145

Row | Target | probe-labelled cysteine peptide fold change
21 | RNASE2_P10153_138_YAQTPANMFYIVACDNRDQR (UniProt P10153) | -0.64
22 | PTER_Q96BW5_38_TLTHEHLAMTFDCCYCPPPPCQEAISK (UniProt Q96BW5) | -0.0466
23 | RLF_Q13129_564_RECIEAR (UniProt Q13129) | -0.00324
24 | PSMG2_Q969U7_168+178_CIPEIDDSEFCIR (UniProt Q969U7) | 0.0182
25 | PSTPIP1_O43586_213_TTCEAFQLQEFDRLTILR (UniProt O43586) | -0.24
26 | RIPOR1_Q6ZS17_196_GHREYTESMCLLESELEAQLGEFHLR (UniProt Q6ZS17) | 0.611
27 | RARS_P54136_150_HLPDNECIEK (UniProt P54136) | -0.0415
28 | RBL1_P28749_439_GIGETFCQHYTQSTDEQPGSHIDFAVNR (UniProt P28749) | 0.154
29 | RBBP5_Q15291_100_LVSASTDNIVSQWDVLSGDCDQR (UniProt Q15291) | -0.0552
30 | ROCK2_O75116_1293_PLWHMFKPPPALECR (UniProt O75116) | -0.623
31 | RECQL_P46063_224_IAVDEVHCCSQWGHDFRPDYK (UniProt P46063) | 0.106
32 | PTBP3_O95758_68_IPCDVTEAEIISLGLPFGK (UniProt O95758) | 0.0678
33 | RPAP1_Q9BWH6_185_GPSVGEVVPNVGPPEGAVTCETPTPR (UniProt Q9BWH6) | 0.916
34 | PTGS1_P23219_158_DCPTPMGTK (UniProt P23219) | -0.0823
35 | RNF169_Q8NCN4_132_DDGQADSEVLGECAR (UniProt Q8NCN4) | -0.115
36 | RIF1_Q5UIP0_1718_TFQTLECQHK (UniProt Q5UIP0) | 0.177
37 | PWWP2B_Q6NUJ5_480_LHTQSVSECITEDGR (UniProt Q6NUJ5) | -0.0232
38 | RIPOR1_Q6ZS17_925_CQEAWALER (UniProt Q6ZS17) | 0.111
39 | PYGL_P06737_496_WLLLCNPGLAELIAEK (UniProt P06737) | 0.163

Source: the supplement of paper PMC12067093, “Discovery and optimisation of a covalent ligand for TRIM25 and its application to targeted protein ubiquitination” (Chemical Science, 2025)
